Substitutions are numbered along the chain they refer to. Names may count otherwise.
B1: CD80_185 variant CD80 IgV-Fc (V11Y, T28Y, M47L) (Fc fusion)
chain: VIHVTKEVKEYATLSCGHNVSVEELAQYRIYWQKEKKMVLTMMSGDLNIWPEYKNRTIFDITNNLSIVILALRPSDEGTYECVVLKYEKDAFKREHLAEVTLSVKADGSGGGGS[omitted - human IgG4 Fc with S228P (EU numbers)]
notes: also called CD80_185-Fc
B2: CD80-218 variant CD80 IgV-Fc (V11W, T28Y, D46V, V68T, R73T, Y87N) (Fc fusion)
chain: B1 chain with Y11W, D46V, L47M, V68T, R73T, Y87N
notes: also called CD80_218-Fc
B3: CD80-219 variant CD80 IgV-Fc (E10S, V11Y, M42R, A71V) (Fc fusion)
chain: B1 chain with E10S, Y28T, M42R, L47M, A71V
notes: also called CD80_219-Fc
B4: CD80-220 variant CD80 IgV-Fc (H18F, T28V, M47L, V68S) (Fc fusion)
chain: B1 chain with Y11V, H18F, Y28V, V68S
notes: also called CD80_220-Fc
B5: CD80_165 variant CD80 IgV-Fc (V11Y, M47V, F59S, L85E) (Fc fusion)
chain: B1 chain with Y28T, L47V, F59S, L85E
notes: also called CD80_165-Fc
B6: CD80_166 variant CD80 IgV-Fc (V11Y, M47V, L85E) (Fc fusion)
chain: B1 chain with Y28T, L47V, L85E
notes: also called CD80_166-Fc
B7: CD80_167 variant CD80 IgV-Fc (V11Y, M42I, M47V, A71G) (Fc fusion)
chain: B1 chain with Y28T, M42I, L47V, A71G
notes: also called CD80_167-Fc
B8: CD80_169 variant CD80 IgV-Fc (E10G, E35G, D46E, M47V, V68M) (Fc fusion)
chain: B1 chain with E10G, Y11V, Y28T, E35G, D46E, L47V, V68M
notes: also called CD80_169-Fc
B9: CD80_170 variant CD80 IgV-Fc (K9N, E10G, E35G, D46E, M47V, V68M) (Fc fusion)
chain: B1 chain with K9N, E10G, Y11V, Y28T, E35G, D46E, L47V, V68M
notes: also called CD80_170-Fc
B10: CD80_171 variant CD80 IgV-Fc (E7S, H18I, V20L, A26K, M47L, A71N) (Fc fusion)
chain: B1 chain with E7S, Y11V, H18I, V20L, A26K, Y28T, A71N
notes: also called CD80_171-Fc
B11: CD80_172 variant CD80 IgV-Fc (K9R, E10S, V11Y, M42L, F59M, V68M, L85E) (Fc fusion)
chain: B1 chain with K9R, E10S, Y28T, M42L, L47M, F59M, V68M, L85E
notes: also called CD80_172-Fc
B12: CD80_173 variant CD80 IgV-Fc (V11Y, T28Y, M47L, L85E) (Fc fusion)
chain: B1 chain with L85E
notes: also called CD80_173-Fc
B13: CD80_175 variant CD80 IgV-Fc (E10S, V11F, T28Y, M47L, T62S) (Fc fusion)
chain: B1 chain with E10S, Y11F, T62S
notes: also called CD80_175-Fc
B14: CD80_176 variant CD80 IgV-Fc (E10R, H18Y, A26G, E35D, V68L, L85E) (Fc fusion)
chain: B1 chain with E10R, Y11V, H18Y, A26G, Y28T, E35D, L47M, V68L, L85E
notes: also called CD80_176-Fc
B15: CD80_177 variant CD80 IgV-Fc (E10G, V11W, V22S, T28P, A71G, E81K, Y87R) (Fc fusion)
chain: B1 chain with E10G, Y11W, V22S, Y28P, L47M, A71G, E81K, Y87R
notes: also called CD80_177-Fc
B16: CD80_178 variant CD80 IgV-Fc (V11Y, T28Y, L85E, Y87I) (Fc fusion)
chain: B1 chain with L47M, L85E, Y87I
notes: also called CD80_178-Fc
B17: CD80_170 variant CD80 IgV-Fc (K9N, E10G, E35G, D46E, M47V, V68M) (Fc fusion)
chain: B1 chain with K9N, E10G, Y11V, Y28T, E35G, D46E, L47V, V68M
B18: CD80_171 variant CD80 IgV-Fc (E7S, H18I, V20L, A26K, M47L, A71N) (Fc fusion)
chain: B1 chain with E7S, Y11V, H18I, V20L, A26K, Y28T, A71N
B19: CD80_172 variant CD80 IgV-Fc (K9R, E10S, V11Y, M42L, F59M, V68M, L85E) (Fc fusion)
chain: B1 chain with K9R, E10S, Y28T, M42L, L47M, F59M, V68M, L85E
B20: CD80_175 variant CD80 IgV-Fc (E10S, V11F, T28Y, M47L, T62S) (Fc fusion)
chain: B1 chain with E10S, Y11F, T62S
B21: CD80_176 variant CD80 IgV-Fc (E10R, H18Y, A26G, E35D, V68L, L85E) (Fc fusion)
chain: B1 chain with E10R, Y11V, H18Y, A26G, Y28T, E35D, L47M, V68L, L85E
B22: CD80_177 variant CD80 IgV-Fc (E10G, V11W, V22S, T28P, A71G, E81K, Y87R) (Fc fusion)
chain: B1 chain with E10G, Y11W, V22S, Y28P, L47M, A71G, E81K, Y87R
B23: CD80_178 variant CD80 IgV-Fc (V11Y, T28Y, L85E, Y87I) (Fc fusion)
chain: B1 chain with L47M, L85E, Y87I
B24: CD80_179 variant CD80 IgV-Fc (H18F, M42G, F59Y, V68N) (Fc fusion)
chain: B1 chain with Y11V, H18F, Y28T, M42G, L47M, F59Y, V68N
B25: CD80_180 variant CD80 IgV-Fc (E10G, V11W, T28Y, M47L) (Fc fusion)
chain: B1 chain with E10G, Y11W
B26: CD80_181 variant CD80 IgV-Fc (K9S, E10R, V11Y, M47L, A71G) (Fc fusion)
chain: B1 chain with K9S, E10R, Y28T, A71G

The binders below were run against T1, human CTLA-4 (human, UniProt P16410 36-223) (assay: flow cytometry on CHO/CTLA-4 cells).
T1 construct: whole, on cells; also called CHO/CTLA-4 cells
Protocol: Binding affinity to CD28 was determined using primary human T cells which endogenously express CD28. Binding to PD-L1 was determined using SCC152 cells transduced with human PD-L1. Binding to CTLA-4 was measured using Chinese hamster ovary (CHO) cells stably transduced to express human CTLA-4.
For staining and analysis by flow cytometry, 75,000 human T cells, SCC152/PD-L1 cells, or CHO/CTLA-4 cells were plated in 96-well round-bottom plates. Cells were spun down and resuspended in staining buffer (PBS (phosphate buffered saline), 1% BSA (bovine serum albumin), 1 mM EDTA, and 0.1% sodium azide) for 20 minutes to block non-specific binding. Afterwards, cells were centrifuged, stain buffer aspirated, and then resuspended in 50 μL of a 1:5 serial dilution of each CD80-Fc candidate variant starting at 100 nM ending at 0.8 nM. Primary staining was performed on ice for 60 minutes, before washing cells in […] staining buffer three times. PE-conjugated anti-human Fc (Jackson ImmunoResearch, USA) was diluted 1:250 in 50 μL staining buffer and added to cells and incubated another 30 minutes at 4° C. Cells were washed two times in 150 μL stain buffer and then fixed in 2% formaldehyde/PBS for 5 minutes at room temperature. Samples were analyzed CytoFLEX LX flow cytometer (Beckman Coulter, USA). Median Fluorescence Intensity (MFI) was calculated for each cell type using the CytExpert software from Beckman Coulter.

T1 sequence (P16410 36-223): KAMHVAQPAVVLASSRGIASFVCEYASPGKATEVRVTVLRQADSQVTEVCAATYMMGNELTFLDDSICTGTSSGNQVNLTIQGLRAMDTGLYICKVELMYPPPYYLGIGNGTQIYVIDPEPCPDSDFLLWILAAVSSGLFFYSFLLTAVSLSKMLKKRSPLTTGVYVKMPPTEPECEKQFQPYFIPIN

MFI at 0.8 nM [MFI]	MFI at 4 nM [MFI]	MFI at 20 nM [MFI]	MFI at 100 nM [MFI]	fold change vs WT CD80 at 20 nM [fold]	Binder
343000	521000	555000	547000	0.67	B1
150000	365000	547000	573000	0.66	B2
73300	226000	471000	567000	0.57	B3
232000	468000	542000	591000	0.65	B4
3680	10800	12500	87700	0.02	B5
305	312	333	–	0	B6
892	2480	1340	35300	0	B7
284000	563000	591000	621000	0.71	B8
252000	505000	555000	597000	0.67	B9
374000	557000	565000	559000	0.68	B10
256000	491000	573000	567000	0.69	B11
209000	388000	505000	521000	0.61	B12
340000	529000	542000	–	0.65	B13
23700	75100	214000	403000	0.26	B14
2960	11100	36900	127000	0.04	B15
495	956	3030	10800	0	B16

What follows are binders tested against CD28 on Jurkat/IL2-reporter cells (UniProt P10747 19-220, limits assumed) (assay: cell-based or functional assay).

Fold Increase over WT at 50 nM [fold]	Rel. Luminescence Units (RLU) 2 nM [RLU]	Rel. Luminescence Units (RLU) 10 nM [RLU]	Rel. Luminescence Units (RLU) 50 nM [RLU]	Rel. Luminescence Units (RLU) 250 nM [RLU]	Binder
2.53	2980	3900	6180	10400	B17
0.99	2100	2370	2410	3280	B18
1.34	2250	2510	3270	4890	B19
5.27	7510	10500	12800	16000	B20
1.32	2720	2940	3230	4840	B21
1.42	2840	2940	3450	7300	B22
1.23	3480	3000	3000	2760	B23
1.09	2950	2620	2660	3250	B24
2.69	3100	3460	6560	8800	B25
1.64	2430	2540	4010	8020	B26
